# Laboratory results: patent publication US20260167677A1, “ANTI-ADAM10 ANTIBODIES AND USES IN TREATMENT OF CANCER” (Memorial Sloan Kettering Cancer Center, priority 2022, published 2026)
# T1: ADAM10 D+C (b) (Bos taurus, UniProt Q10741)
# T1 construct: the D+C domains (455-646) were cloned, expressed and purified from HEK293 cells; Fc-tag (C, cleaved yes); made in house; host or cells: HEK293 cells
# T1 sequence (Q10741 455-646): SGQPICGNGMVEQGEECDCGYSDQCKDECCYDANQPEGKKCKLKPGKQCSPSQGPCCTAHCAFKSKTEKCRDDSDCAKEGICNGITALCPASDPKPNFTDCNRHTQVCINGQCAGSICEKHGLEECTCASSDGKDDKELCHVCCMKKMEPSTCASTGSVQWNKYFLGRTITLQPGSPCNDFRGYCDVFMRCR
# T2: bovine (b) ADAM10 D+C (Bos taurus, UniProt Q10741)
# T2 construct: the D+C domains (455-646) were cloned, expressed and purified from HEK293 cells; Fc-tag (C, cleaved yes); made in house; host or cells: HEK293 cells
# T2 sequence (Q10741 455-646): T1 sequence (Q10741 455-646)
# B1: 1H5: fully human anti-ADAM10 antibody clone; heavy chain SEQ ID NO: 14, light chain SEQ ID NO: 15 (antibody)
# heavy: QVQLVESGGGLVKPGGSLRLSCAASGFTFSDYYMSWIRQAPGKGLEWVSYISSSGSTIYYADSVKGRFTISRDNAKNSLYLQMNSLRAEDTAVYYCARDFYDSKIFDYWGQGTLVTVSS[human IgG1 constant region left out]
# light: DIQMTQSPSSLSASVGDRVTITCRASQSISSYLNWYQQKPGKAPKLLIYAASSLQSGVPSRFSGSGSGTDFTLTISSLQPEDVGVYYCMEGLKTPFTFGPGTKLEIKRTVAAPSVFIFPPSDEQLKSGTASVVCLLNNFYPREAKVQWKVDNALQSGNSQESVTEQDSKDSTYSLSSTLTLSKADYEKHKVYACEVTHQGLSSPVTKSFNRGEC
# How the values were obtained:
# human and mouse ADAM10 = test: ELISA-based assays, human and mouse ADAM10 (data not shown); type: binding
# ADAM10 D+C (b) = molecular target: T1, ADAM10 D+C (b); test: Pull-down with protein A Sepharose bead-bound mAb; type: binding, bovine
# Excerpt: (§1) Panels A-C show characterization of the fully human 1H5 Fab. […] [Lane 1: Low molecular weight standards (Bio-Rad). Lane 2: bead bound murine 8C7 immunoglobulin G (IgG)+ADAM10 D+C. […] Lane 4: bead bound ADAM10 D+C without any pre-bound mAb. Lane 5: ADAM10 D-f-C input]
# bovine (b) ADAM10 D+C = molecular target: T2, bovine (b) ADAM10 D+C; test: ELISA, 1H5 IgG binding to immobilized bovine ADAM10 D+C; details: FIG. 2 Panel E
# Excerpt: as §1
# LIM1215 = test: Alamar blue cell viability assay, LIM1215; type: cell-based, human; details: LIM1215, 20 μg/ml
# Method: (§2) For the Alamar blue cell viability assays, the cells were harvested in the log phase of growth (after 3 days of culturing). The cell count was determined and was adjusted to 5×10^4 cells/ml. […] The cells were allowed to grow for an additional 38 hours. Cells not treated with 1H5 were used as a control. Alamar Blue (10% of the well volume) was added aseptically. Cultures containing Alamar Blue were incubated for 6 hours, and cell proliferation was measured spectrophotometrically by absorbance at 570 and 600 nm. Cell viability was calculated using the following formula:
# (§3) O1=molar extinction coefficient (E) of oxidized alamarBlue® (Blue) at 570 nm, O2=E of oxidized alamarBlue® at 600 nm, A1=absorbance of test wells at 570 nm, A2=absorbance of test wells at 600 nm, P1=absorbance of positive growth control well (cells plus AamarBlue® but no test agent) at 570 nm, P2=absorbance of positive growth control well (cells plus AlamarBlue® but no test agent) at 600 nm (O'Brien et al., 2000).
# HT-29 = test: Alamar blue cell viability assay, HT-29; type: cell-based
# Method: as §2, §3
# Notch1 in COLO205 cells = test: Sandwich ELISA of total and cleaved Notch1 in COLO205 cells; type: cell-based, human; details: COLO205, 5 μg/ml, 10, 18 and 36 hours
# Method: Ligand-activated Notch signaling requires sequential cleavage of Notch by ADAM10 (which is the α-secretase for Notch) and by γ-secretase, releasing the Notch intracellular domain (NICD) in the cytoplasm (Hartmann et al., 2002).
# The COLO205 cells were harvested in the log phase of growth (after 3 days of culturing), adjusted to 5×10^4 cells/ml, and allowed to adhere and grow for 24 hours in six-well cell culture plates (Greiner bio-one). […] The PathScan® total Notch1 sandwich ELISA kit was used to measure total Notch1 according to the manufacturer's protocol (Cell Signaling Technologies). Briefly, the cells harvested at different time points were resuspended in 1X lysis buffer containing 1 mM PMSF, sonicated on ice and centrifuged for 10 min (×14,000 rpm) at 4° C. The supernatant, which is the cell lysate, was used for further study, 100 μl of the lysates (diluted to 1 mg/ml) from the different time intervals was added to the microwells (in quadruplicate) coated with a Notch1 rat antibody. This antibody captures the total Notch1 (cleaved plus uncleaved) from the lysates. After extensive washing, a Notch1 rabbit antibody was added to detect the total captured Notch1 protein. To detect Notch intracellular domain (NICD1), PathScan® cleaved Notch1 (Val1744) sandwich ELISA Kit (Cell Signaling Technologies) was used. […] The data was recorded at 450 nm. […]
molecule,measurement,setting,value
B1,binding to human versus mouse ADAM10,human and mouse ADAM10,binding equally well to human and mouse ADAM10
same,binding of ADAM10 D+C to bead-bound mAb,ADAM10 D+C (b),binds
same,binding to immobilized bovine ADAM10 D+C,bovine (b) ADAM10 D+C,binds specifically
same,inhibition,LIM1215,60-70%
same,growth of colon cancer cell line,HT-29,inhibited growth
same,cleaved notch levels versus untreated control,Notch1 in COLO205 cells,significant decrease
same,total notch levels versus untreated control,Notch1 in COLO205 cells,did not significantly differ
